The list shows a part of the results.

The target in the assay is T1, OsWOX13 (Oryza sativa, UniProt Q5QMM3 1-267).
T1 sequence: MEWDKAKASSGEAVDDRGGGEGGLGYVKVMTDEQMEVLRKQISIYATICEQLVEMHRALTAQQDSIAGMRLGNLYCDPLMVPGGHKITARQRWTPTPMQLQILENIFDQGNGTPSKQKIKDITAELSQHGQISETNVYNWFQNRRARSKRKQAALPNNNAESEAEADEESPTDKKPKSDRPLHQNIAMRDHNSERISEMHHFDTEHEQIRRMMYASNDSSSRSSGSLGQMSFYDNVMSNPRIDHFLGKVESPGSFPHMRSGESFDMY
Put plainly: protein-binding microarray (RPBM); PBS, 2% BSA, 51.3 ng/ul salmon testes DNA, 50 uM zinc acetate, 200 nM TF, 25 C, 1 h; high values mean tight binding. The settings on record: protein: recombinant; tags: N-terminal polyhistidine and DsRed monomer fusion (pET32a); label: CyDye5-dUTP incorporated in the synthesized complementary strand; 3' TTTTT single-stranded linker to array surface; dsDNA, one strand shown. In a few lines:
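The binding signal for each feature is its fluorescence intensity in arbitrary units. An Axon 4000B scanner was used to read a custom Agilent array that had been made double-stranded with Cy5-dUTP primer extension, blocked with 2% BSA, incubated at 25 °C for 1 h with 200 nM protein in PBS, 2% BSA, salmon testes DNA and 50 µM zinc acetate, and washed. The protein was an N-terminal polyhistidine–DsRed transcription factor fusion from E. coli BL21-CodonPlus, purified on Ni–NTA.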
As to “GAGATTTAATTTTGATTGGAATGCATATTCAGAATACTATCGGAGTCACCTAGTGCAG”, the binding signal was 44200 fluorescence intensity (a.u.).

For “CATATAAATTGCGAGACGAATCTCTTGAGCCTAATTACGCCGGAGTCACCTAGTGCAG”, the binding signal was 12300 fluorescence intensity (a.u.).

As for “CAAAACAATTATTGGGCCAAGACATTTCCCTTGATGGGATCGGAGTCACCTAGTGCAG”, the binding signal was 15000 fluorescence intensity (a.u.).

“AGTTGCATTATTAATCACATCCACTGATATAACGATTTTGCGGAGTCACCTAGTGCAG”: the binding signal is 3970 fluorescence intensity (a.u.).

As for “CATATAATTTCCTGTCTTAAGTTACAGAATGTGGATCAGTCGGAGTCACCTAGTGCAG”, the binding signal is 16200 fluorescence intensity (a.u.).

With “TAGTGTAATTTGAGTGACCCCAGTAATATTTTCCTATAGCCGGAGTCACCTAGTGCAG”, the binding signal was 4310 fluorescence intensity (a.u.).

Turning to “GTCCCGATTGTCTTGTAAATTATGCTACTTGGCCATGAAACGGAGTCACCTAGTGCAG”, the binding signal is 8100 fluorescence intensity (a.u.).

With “GTTGATATAACATGTAAGTGTACTTTTAGTAGATGGGTTGCGGAGTCACCTAGTGCAG”, the binding signal was 3250 fluorescence intensity (a.u.).

“ACTATATAATTAAAATAGATTTCACCCGTTGCAACGCACGCGGAGTCACCTAGTGCAG”: the binding signal is 13300 fluorescence intensity (a.u.).

For “TCGACCGATTGATCGATTGCTCACTGCCATATACATGATACGGAGTCACCTAGTGCAG”, the binding signal is 9930 fluorescence intensity (a.u.).

As to “CAATGTTTTATCCTCAATCACACTTATAGTCTACCCTTACCGGAGTCACCTAGTGCAG”, the binding signal is 3960 fluorescence intensity (a.u.).

As for “AACATGTATGATCAAATTAGATTTATGATTGACTACAATGCGGAGTCACCTAGTGCAG”, the binding signal was 38500 fluorescence intensity (a.u.).

Take “TGAATTAATTTTCATCAATTCCCACTTTCCCAGTACAGTGCGGAGTCACCTAGTGCAG”: the binding signal is 29500 fluorescence intensity (a.u.).

Turning to “TTGAATGACTACGAATTTGTTTAAATATTTGCATTCCATCCGGAGTCACCTAGTGCAG”, the binding signal was 7180 fluorescence intensity (a.u.).

Take “GCAAATCAATAAACCTGACTGCATGAGAAACAGAGTTTGTCGGAGTCACCTAGTGCAG”: the binding signal is 5950 fluorescence intensity (a.u.).

Regarding “AACTGACACGTGATGACTTAGCTGGAAGCGGCACGGACGGCGGAGTCACCTAGTGCAG”, the binding signal was 3320 fluorescence intensity (a.u.).

Turning to “ATTAATTATTGGCGACGTACGGACAGGACCAAGAAATCTCCGGAGTCACCTAGTGCAG”, the binding signal is 20000 fluorescence intensity (a.u.).

For “ACCGAAATTTTGTTCTGTTGTTACTATTGGTAGTTAGTTTCGGAGTCACCTAGTGCAG”, the binding signal was 4190 fluorescence intensity (a.u.).

Consider “TCCATAAATTTGTGGGAGCTAGGAATATCCAACTTCAAATCGGAGTCACCTAGTGCAG”, for which the binding signal was 4240 fluorescence intensity (a.u.).

Turning to “AGTGACACGGTTCTAATTTTGTGAAATTTCAGTGGCAAGGCGGAGTCACCTAGTGCAG”, the binding signal is 3680 fluorescence intensity (a.u.).

Turning to “AAATTAGATTTGACTATGGCTGTGTTTAGTTCACACCAAACGGAGTCACCTAGTGCAG”, the binding signal is 7300 fluorescence intensity (a.u.).

For the sequence “TTACTTTTGCCTTTAATTAATTCATAGCTTTTATGTGCATCGGAGTCACCTAGTGCAG”, the binding signal was 4510 fluorescence intensity (a.u.).

For “AGTTGAAATTTTCAAATGTTGATTTTACTTGAAATAAAGGCGGAGTCACCTAGTGCAG”, the binding signal was 4760 fluorescence intensity (a.u.).

For “CCGCCATCAAACAATCAAGACTCAAGAGGCTTCCAGCTGGCGGAGTCACCTAGTGCAG”, the binding signal was 5620 fluorescence intensity (a.u.).

As to “TAAATTTAAACGGTAAATTAAGGAGAGGGAGGTCATTCTTCGGAGTCACCTAGTGCAG”, the binding signal was 6560 fluorescence intensity (a.u.).

For the sequence “TTTGACATTAACGGAAGTCAATCCAATAACAAATGGGATACGGAGTCACCTAGTGCAG”, the binding signal is 7320 fluorescence intensity (a.u.).

In the case of “GCTTGACTTCTTCATTCCTCAATCTCCTAACAACCATCACCGGAGTCACCTAGTGCAG”, the binding signal is 4180 fluorescence intensity (a.u.).

With “GTCCAATCCACAATAATTTATACACGCGTATATACTTCACCGGAGTCACCTAGTGCAG”, the binding signal was 5720 fluorescence intensity (a.u.).

Consider “TTTCAATTAAACTTTCAATTTTAGCGTGAACTAAACACACCGGAGTCACCTAGTGCAG”, for which the binding signal was 17300 fluorescence intensity (a.u.).

As for “TCACTGTCAATTAGACTTTCAGAAGACGAGTAACGGTCAACGGAGTCACCTAGTGCAG”, the binding signal was 24900 fluorescence intensity (a.u.).

As for “CAATCAATTGGTTGATTTTAGCACACCACAGTACTATTCACGGAGTCACCTAGTGCAG”, the binding signal was 6680 fluorescence intensity (a.u.).

As for “AGGCATAATTGAGGCCACCCGTTGCAGTGAAAGGTTTGGTCGGAGTCACCTAGTGCAG”, the binding signal was 22900 fluorescence intensity (a.u.).

As for “ATTAAATTTGAGATGAAATCTGGAGAAGCTTTGAATAACTCGGAGTCACCTAGTGCAG”, the binding signal was 5720 fluorescence intensity (a.u.).

Take “CACTTGAAATTACTGATATTCAACTGTTCACATCTTCCAGCGGAGTCACCTAGTGCAG”: the binding signal is 3190 fluorescence intensity (a.u.).

Consider “CTCAACTAATTACAACCTTCTTCAATTTAATTTCATCTTCCGGAGTCACCTAGTGCAG”, for which the binding signal was 20500 fluorescence intensity (a.u.).

“ACTGGTATCGATTAACAGGTTAATTTGGAGCGTCACGGGCCGGAGTCACCTAGTGCAG”: the binding signal is 7140 ± 617 fluorescence intensity (a.u.).

On to “ACTATAATGACACAATTTTCTAGCTAACTTTAAAACTGTGCGGAGTCACCTAGTGCAG”, for which the binding signal is 6790 fluorescence intensity (a.u.).

Regarding “TGTTAAGTTAAACGTGATTTGTTTGTATGGACCTAATTTACGGAGTCACCTAGTGCAG”, the binding signal was 4580 fluorescence intensity (a.u.).

Regarding “TGTCATACTGATTTGGATGTTATTTGCAGAATCTACGCAGCGGAGTCACCTAGTGCAG”, the binding signal was 9470 fluorescence intensity (a.u.).

As to “GGCTTGATGGATGGTCATCTTTCAATGCCACTAGTGAAGACGGAGTCACCTAGTGCAG”, the binding signal was 20700 fluorescence intensity (a.u.).

Consider “TAGTAAATTGCAGTTTGAAACCATAAATACAATGAAGTATCGGAGTCACCTAGTGCAG”, for which the binding signal is 7120 fluorescence intensity (a.u.).

Regarding “AAAATGGATTTAATAGAAAGAAATGTTCACACATATCACGCGGAGTCACCTAGTGCAG”, the binding signal was 5480 fluorescence intensity (a.u.).
